Laboratory results reported in PubChem BioAssay AID1768 (National Center for Advancing Translational Sciences (NCATS), 2009).
Hit rate of the full screen: of about 270,000 compounds, about 620 (0.23%) were called active. The shares of active, inactive and inconclusive entries below differ from those in the screen. Calls come from the whole dose curve; as a rule, active = well fitted inhibition curve with a large enough effect in the polarisation, with a control signal flat (not every such curve was filed as active); inconclusive = small, poorly fitted or top-dose-only effect, or effect the other way, or a change in a side signal; inactive = no such curve, though single readings can be large or run the other way; the % refers to the polarisation. Potencies beside an inconclusive call are fits to weak or partial responses and may not hold up. A note “side channel” means that the fit belongs to a control or component signal, not to the main read-out.

target: Menin (Homo sapiens) (UniProt O00255); experiment: qHTS Assay for Inhibitors Targeting the Menin-MLL Interaction in MLL Related Leukemias: Competition With Texas Red Labeled MLL-derived Mutant Peptide; settings: fluorescence polarization; series mostly up to 61.6 µM
UniProt O00255, sequence (O00255 whole entry, looked up): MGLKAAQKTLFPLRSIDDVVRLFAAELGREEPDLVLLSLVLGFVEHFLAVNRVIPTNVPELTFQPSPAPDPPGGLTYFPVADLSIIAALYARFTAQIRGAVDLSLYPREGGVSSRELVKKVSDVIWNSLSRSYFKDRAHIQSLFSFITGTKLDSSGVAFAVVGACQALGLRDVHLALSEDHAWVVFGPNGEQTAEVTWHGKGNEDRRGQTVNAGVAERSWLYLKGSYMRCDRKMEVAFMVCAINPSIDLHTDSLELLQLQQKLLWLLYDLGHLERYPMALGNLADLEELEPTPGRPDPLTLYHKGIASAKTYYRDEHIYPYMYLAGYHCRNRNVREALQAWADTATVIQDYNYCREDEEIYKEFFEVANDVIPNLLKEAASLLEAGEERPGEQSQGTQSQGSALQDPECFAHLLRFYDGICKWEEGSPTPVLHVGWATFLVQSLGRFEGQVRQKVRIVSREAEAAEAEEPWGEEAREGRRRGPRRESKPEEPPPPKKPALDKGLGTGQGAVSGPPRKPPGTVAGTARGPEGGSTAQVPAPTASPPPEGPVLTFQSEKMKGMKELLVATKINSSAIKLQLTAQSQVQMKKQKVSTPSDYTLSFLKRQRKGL
Potency is the fitted concentration of half-maximal effect; tags give direction and shape of the fitted curve or compound fluorescence and quenching.

Structure (SMILES) | Potency
c1ccc(CN2CCC3(CCNCC3)CC2)cc1 | inconclusive: 35.5 µM [inhibitor, single point]
CCC(C)n1c(O)c(/C=N/NC(=O)c2ccncc2)c(=O)[nH]c1=S (stereo unspecified) | inconclusive: 31.6 µM [quencher, side channel, single point]
COc1cc(/C=C/c2cccc[n+]2C)ccc1OCC(=O)Nc1ccccc1C | inconclusive: 20 µM [inhibitor, single point]
C[C@@H]1CC[C@@]2(OC1)O[C@H]1C[C@H]3[C@@H]4CC=C5C[C@@H](O)[C@H](O)C[C@]5(C)C4CC[C@]3(C)[C@H]1[C@@H]2C (stereo partly specified) | inconclusive: 3.16 µM [inhibitor, partial curve]
CN1CC(C(=O)c2ccc([N+](=O)[O-])cc2)C(c2ccc(Cl)cc2)C1 (stereo unspecified) | inconclusive: 20 µM [inhibitor, partial curve]
COc1ccc(CC(C)NCCC(c2ccccc2)c2ccccc2)cc1 (stereo unspecified) | inconclusive: 8.91 µM [fluorescent, side channel, full curve]
O=[N+]([O-])c1cnc2ccc3ccccc3c2c1 | inconclusive: 17.8 µM [quencher, side channel, partial curve]
CCOc1cc(C2C(C#N)=C(N)Oc3c2c(=O)oc2ccccc32)ccc1OC(=O)c1cccs1 (stereo unspecified) | inconclusive: 25.1 µM [inhibitor, single point]
CCCC(=O)Nc1cc(C(=O)N2CCC3(CC2)OCCO3)ccc1S(=O)(=O)c1ccc(C)cc1 | inconclusive: 17.8 µM [inhibitor, partial curve]
O=C(COC(=O)CCc1c[nH]c2ccccc12)Nc1ccc([N+](=O)[O-])cc1 | inconclusive: 28.2 µM [quencher, side channel, single point]
CC(=O)c1cc(C#N)c(N2CCN(C)CC2)nc1C | inconclusive: 14.1 µM [inhibitor, partial curve]
O=C(/C=C/c1ccccc1)NC(NC(=S)Nc1cccc2cccnc12)C(Cl)(Cl)Cl (stereo unspecified) | inconclusive: 39.8 µM [fluorescent, side channel, single point]
O=S(=O)(Nc1ccc(-c2nc3ccccc3o2)cc1)c1ccccc1 | inconclusive: 17.8 µM [quencher, side channel, partial curve]
Clc1ccc(CSC(Cn2ccnc2)c2ccc(Cl)cc2Cl)cc1 (stereo unspecified) | inconclusive: 8.91 µM [fluorescent, side channel, full curve, poor fit]
CC(C)CCn1c(N)c(C(=O)NCc2cccs2)c2nc3ccccc3nc21 | inactive
O=C(N/N=C/c1c(O)n(Cc2ccccc2)c(=O)[nH]c1=O)c1ccccc1O | inconclusive: 10 µM [quencher, side channel, partial curve]
CCOP(=O)(OCC)Oc1cc(C)c(N(C)C)c(C)c1 | inconclusive: 12.6 µM [inhibitor, partial curve]
CN1C(=O)C(Cc2ccc(OCc3ccccc3)cc2)C(=O)N(C)C1=O | inconclusive: 25.1 µM [quencher, side channel, single point]
CC(C)(C)c1ccc(C(=O)C2CCCN(C3CCC3)C2)cc1 (stereo unspecified) | inconclusive: 28.2 µM [fluorescent, side channel, partial curve]

Structure (SMILES) | Potency
CCCCCCCCCC[n+]1cccc([C@@H]2CCCN2C)c1 | inactive
CCC(C)/C=C(C)/C=C/C1=CC2=C(Cl)C(=O)C(C)(OC(C)=O)C(=O)C2=CO1 (stereo unspecified) | inconclusive: 17.8 µM [quencher, side channel, partial curve]
Cc1ccc(-c2nc3ccccc3c(=O)n2-c2nccs2)cc1 | inconclusive: 28.2 µM [quencher, side channel, single point]
CCOP(=S)(OCC)N1CCOCCOCCN(P(=S)(OCC)OCC)CCOCCOCC1 | inconclusive: 17.8 µM [fluorescent, side channel, partial curve]
COC([CH2][Hg])CNC(=O)c1ccccc1OCC(=O)O (stereo unspecified) | inactive
O=P(O)(O)/C=C(\Cl)c1ccccc1 | inactive
CC(=O)N1CCN(c2ccc(OC[C@H]3CO[C@](Cn4ccnc4)(c4ccc(Cl)cc4Cl)O3)cc2)CC1 | inconclusive: 12.6 µM [fluorescent, side channel, partial curve]
CC(=O)[C@H]1CC[C@H]2[C@@H]3CCC4=CC(=O)CC[C@]4(C)[C@H]3CC[C@]12C | inconclusive: 17.8 µM [fluorescent, side channel, partial curve]
CO/C1=C\C(C)=C\[C@@H](C)[C@@H](O)[C@@H](C)C/C(C)=C/C=C/[C@H](OC)[C@@H]([C@@H](C)[C@@H](O)[C@H](C)[C@@]2(O)C[C@@H](O)[C@H](C)C(C(C)C)O2)OC1=O (stereo partly specified) | inactive
O=C1NC(=O)C(=Cc2ccc(-c3cc(Cl)ccc3[N+](=O)[O-])o2)C(=O)N1 | inconclusive: 14.1 µM [quencher, side channel, partial curve]
CC(NCc1ccc(Cl)cc1Cl)C(O)c1ccccc1 (stereo unspecified) | inconclusive: 39.8 µM [inhibitor, single point]
Cn1cccc1/C=C1\C(=O)NC(=O)N(Cc2ccccc2Cl)C1=O | inconclusive: 28.2 µM [quencher, side channel, partial curve]
Cc1ccc(NP(=O)(c2ccccc2)c2nc3ccccc3s2)cc1 (stereo unspecified) | inconclusive: 17.8 µM [fluorescent, side channel, partial curve]
O=C1c2ccccc2C(=O)c2c1ccc1c(=O)n(-c3ccccc3)[nH]c21 | inconclusive: 20 µM [quencher, side channel, partial curve]
CCOc1cc(N2CCOCC2)c(OCC)cc1NC(=O)C1=NN(c2cccc(C)c2)C(=O)CC1 | inconclusive: 2.82 µM [inhibitor, full curve]
CC(=O)Nc1ccccc1C(=O)OCC(=O)c1ccc2c(c1)OCCO2 | inconclusive: 20 µM [inhibitor, partial curve]
CCN(CC)Cc1c[nH]c2ccccc12 | inconclusive: 11.2 µM [quencher, side channel, partial curve]
COc1cccc(CCNCc2c(F)cccc2F)c1 | inconclusive: 28.2 µM [inhibitor, single point]
COc1ccc2cc1Oc1ccc(cc1)CC1c3cc(c(OC)cc3CCN1C)Oc1c(OC)c(OC)cc3c1C(C2)N(C)CC3 (stereo unspecified) | inconclusive: 28.2 µM [inhibitor, single point]

Structure (SMILES) | Potency
O=C1NC(=O)N(c2ccc(Cl)cc2)C(=O)/C1=C\c1ccc(Sc2nc3ccccc3[nH]2)o1 | inconclusive: 31.6 µM [fluorescent, side channel, partial curve]
COc1cccc(C(=O)N2CCN(Cc3ccccn3)CC2)c1OC | inconclusive: 5.01 µM [inhibitor, full curve, poor fit]
CC(C)(C)c1ccc(O)c(N=Cc2c(O)ccc3ccccc23)c1 | inconclusive: 10 µM [quencher, side channel, partial curve]
O=C(O)COc1ccc(Br)cc1C(c1c(C(=O)O)[nH]c2ccccc12)c1c(C(=O)O)[nH]c2ccccc12 | inconclusive: 14.1 µM [quencher, side channel, partial curve]
O=c1[nH]c(=O)n(-c2ccccc2)c(O)c1N=Nc1ccc(Br)cc1 | inconclusive: 25.1 µM [quencher, side channel, partial curve]
O=C(N/N=C/c1c(O)n(Cc2ccc(F)cc2)c(=O)[nH]c1=O)c1ccccc1O | inconclusive: 7.94 µM [quencher, side channel, partial curve]
O=C1NC(=O)c2c1c1c3ccccc3[nH]c1c1[nH]c3ccccc3c21 | inconclusive: 39.8 µM [fluorescent, side channel, single point]
O=C(CN1CCCC1)Nc1ccc(Cl)cc1C(=O)c1ccccc1 | inactive
CCOc1ccc(CN2CCCC(C(=O)c3ccccc3OC)C2)cc1 (stereo unspecified) | inactive
NCCCC(=O)OC1N=C(c2ccccc2Cl)c2cc(Br)ccc2NC1=O (stereo unspecified) | inconclusive: 22.4 µM [fluorescent, side channel, partial curve]
COc1ccc(-n2c(O)c(/C=C3\C=Nc4ccc(Br)cc43)c(=O)[nH]c2=O)cc1 | inconclusive: 25.1 µM [quencher, side channel, partial curve]
COc1ccc(CCNCc2c(OC)ccc3ccccc23)cc1 | inconclusive: 14.1 µM [fluorescent, side channel, partial curve]
CCCCn1c(O)c(/C=C2\C=Nc3ccccc32)c(=O)[nH]c1=O | inconclusive: 20 µM [quencher, side channel, partial curve]
Cc1ccc(OCC(=O)N2CCN(C3CCC(c4ccccc4)CC3)CC2)cc1 (stereo unspecified) | inconclusive: 14.1 µM [fluorescent, side channel, partial curve]
Nc1ccc2cc(Br)ccc2c1 | inconclusive: 12.6 µM [quencher, side channel, partial curve]
O=C1NC(=O)N(Cc2ccccc2)C(=O)/C1=C/c1cnn(-c2ccccc2)c1 | inconclusive: 31.6 µM [quencher, side channel, partial curve]
ClC1=C(Cl)C2(Cl)C3C(Cl)C=CC3C1(Cl)C2(Cl)Cl (stereo unspecified) | inactive
O=[N+]([O-])c1ccc(CNCCc2ccccc2)cc1 | inconclusive: 20 µM [inhibitor, single point]
